This is an account of results in PubChem BioAssay AID1159614 (National Center for Advancing Translational Sciences (NCATS), 2016).

Out of some 45,000 compounds screened, about 65 (0.1%) were called active. Calls follow the shape of the dose curve; as a rule, active = well fitted activation curve with a large enough effect; inconclusive = small, poorly fitted or top-dose-only effect; inactive = no such curve, though single readings can be large or run the other way. Some of the results follow.

Chain of UniProt P54803 (P54803 whole entry, looked up): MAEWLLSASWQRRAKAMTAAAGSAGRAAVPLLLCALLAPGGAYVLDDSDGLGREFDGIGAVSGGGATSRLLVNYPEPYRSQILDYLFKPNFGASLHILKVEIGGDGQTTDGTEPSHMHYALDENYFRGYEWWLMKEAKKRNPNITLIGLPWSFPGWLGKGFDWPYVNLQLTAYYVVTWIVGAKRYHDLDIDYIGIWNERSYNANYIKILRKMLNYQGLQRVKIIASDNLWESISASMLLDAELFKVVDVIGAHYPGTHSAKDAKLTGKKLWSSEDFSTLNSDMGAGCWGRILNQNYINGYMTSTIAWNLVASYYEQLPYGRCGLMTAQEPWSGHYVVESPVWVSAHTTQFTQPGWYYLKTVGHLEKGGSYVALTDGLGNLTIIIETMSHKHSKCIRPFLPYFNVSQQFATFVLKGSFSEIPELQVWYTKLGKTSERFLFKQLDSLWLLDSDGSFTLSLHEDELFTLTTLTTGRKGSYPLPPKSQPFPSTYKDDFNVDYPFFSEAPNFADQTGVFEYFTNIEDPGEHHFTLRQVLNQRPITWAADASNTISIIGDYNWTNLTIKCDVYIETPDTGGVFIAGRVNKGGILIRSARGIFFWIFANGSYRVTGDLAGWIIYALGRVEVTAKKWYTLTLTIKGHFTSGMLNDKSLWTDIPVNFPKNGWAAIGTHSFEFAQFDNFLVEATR

The target in this assay is Galactocerebrosidase (Homo sapiens) (UniProt P54803). Nature of the assay: A Novel Cell-Based Assay to Identify Small Molecules for B -Galactocerebrosidase. Also: 0% is about no effect; nearly all actives have a fitted effect of over 65% in size. The note with it: 145M-Twi-hGALC-G270D cells (Twitcher mouse brain line with human GALC G270D), HMU-beta-Gal fluorescence, 48 h; series mostly up to 57.5 µM; activation: at the top concentration. In a few lines:
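Live 145M-Twi cells (Twitcher mouse brain-derived, GALC-null) stably expressing human GALC-G270D, with a wild-type GALC line, were compound-treated. Residual GALC activity was then read as fluorescence from 0.1 mM final HMU-β-gal at pH 5.2; higher signal means activation.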
On to `Cc1ccc(CNC(=O)CCC(=O)N2CC3CCCN3c3ccccc32)cc1` (centres undefined), for which the “activation” value is inactive: -9.03%. The value for `COc1ccccc1N1CCN(c2ccc(NC(=O)c3ccc(C)cc3)cc2C(=O)O)CC1` was inactive: -8.73%; that for `Cc1ccc(NC(=O)CCCn2c(=O)c3cccn3c3ccccc32)c(Cl)c1` was inactive: -0.927%. The value for `Cc1c(CNC2CCCCC2)c(C(=O)O)c(C)n1Cc1c(F)cccc1Cl` was inactive: -13.7%; that for `COc1ccc(CCNC(=O)CCc2c(C)nc3c(c(C)nn3-c3ccc(C)c(C)c3)c2C)cc1OC` was inactive: -22.7%; that for `COc1ccccc1CNC(=O)c1cc2cc3ccc(Cl)cc3nc2o1` was inactive: -24%. The result for `CCOc1ccccc1NC(=O)Cn1c(=O)n(CCC(=O)NCc2ccc3c(c2)OCO3)c(=O)c2ccccc21` reads inactive: -12%. As for `COc1cc(OC)c(NC(=O)c2csc3c2CCC(C)C3)cc1Cl` (centres undefined), the “activation” value was inactive: -5.53%.

As to `COc1ccc(CNC(=O)c2cnc3sc(N4CCOCC4)nn3c2=O)cc1`, the “activation” value was inactive: 4.77%.

For the molecule `COc1cc(OC)c(NC(=O)N2CCSc3ccccc32)cc1Cl`, the “activation” value was inactive: -28.7%. The value for `Cc1cc(Cl)ccc1NC(=O)c1cccc(NC(=O)N2CCSc3ncccc32)c1` was inactive: -6.21%; that for `O=C(CSC1=Nc2ccccc2C2=NC(CCC(=O)NC3CCCCC3)C(=O)N12)Nc1cccc(C(F)(F)F)c1` (centres undefined) was inactive: -13.6%; that for `COc1ccc(C(=O)Nc2cc3c(cc2C(=O)c2ccccc2Cl)OCCO3)cc1` was inactive: -12.9%. The result for `Cc1ccc(CNC(=O)Cn2cc(S(=O)(=O)Cc3ccccc3Cl)c3ccccc32)cc1` reads inactive: -5.86%; that for `CCOc1ccc(NC(=O)C(CC)n2c(=O)c(-c3ccccc3NC(C)=O)nc3ccccc32)cc1` (centres undefined), inactive: -40.6%; that for `O=C(CCOc1ccccc1)N(Cc1cccnc1)c1nc2c(F)cc(F)cc2s1`, inactive: -21.4%. The result for `Nc1nnc(SCC(=O)Nc2ccc(Cl)cc2)s1` reads inactive: -11.3%.

`COc1ccccc1CNC(=O)c1ccc(Cn2c(SCc3ccccc3)nc3cccnc32)cc1`: the “activation” value was inactive: -28.6%.

For the molecule `CCNC(=O)CC1C(=O)N(c2ccc(F)cc2)C(=O)N1CCOC` (centres undefined), the “activation” value was inactive: -6.08%. The result for `O=C(CCc1ccccc1)NCc1nc2cccnc2n1Cc1ccc(F)cc1` reads inactive: 2.73%.

For `N#Cc1ccccc1CN1C(=O)c2ccccc2Sc2ccc(C(=O)OCc3ccco3)cc21`, the “activation” value is inactive: 19.8%. The result for `CCCCCCCC(=O)OCC(COC(=O)CCCCCCC)OC(=O)CCCCCCC` reads inactive: -11.6%. Turning to `CCOc1ccc(C(=O)N2CCC(c3nnc(-c4ccccc4OC)o3)CC2)cc1`, the “activation” value was inactive: -18.8%.

On to `COC(=O)C(CCSC)NC(=O)C1CCN(c2ncnc3c2nc2n3CCCCC2)CC1` (centres undefined), for which the “activation” value was inactive: -6.14%. For `CCOC(=O)c1c(C)oc2nc(C)nc(NCCCN3CCN(c4ccccc4)CC3)c12`, the “activation” value was inactive: -19.8%. The value for `CCOc1ccc(NC(=O)CCc2c(C)nc3nc(C)nn3c2C)cc1` was inactive: -10.4%; that for `Fc1ccc(-n2ncc3c(NC4CCCCCC4)ncnc32)cc1` was inactive: -14.2%; that for `CCOc1ccc(OCC)c(NC(=O)c2cc(S(=O)(=O)N3CCCC3)cn2C)c1` was inactive: 1.54%.

Consider `COc1ccc(NC(=O)CN2CCN(Cc3ccccc3)S2(=O)=O)c(OC)c1`, for which the “activation” value is inactive: -17.2%. The result for `CCOC(=O)N1CCc2c(sc3c2c(=O)n(-c2ccccc2)c(=O)n3CC(=O)Nc2ccc(OC)cc2OC)C1` reads inactive: -15.8%; that for `CC1CCc2c(sc(NC(=O)CCCOc3ccccc3)c2C(N)=O)C1` (centres undefined), inactive: -5.24%. The value for `COc1ccc(CCNc2ncnc3c2nnn3C)cc1` was inactive: -25.4%; that for `COC(=O)c1sc2cccc(F)c2c1S(=O)(=O)N1CCN(c2cccc(C)c2)C(C)C1` (centres undefined) was inactive: -7.92%; that for `Cc1nc2ccc(S(=O)(=O)N(CC(=O)Nc3ccc(F)cc3)Cc3ccccc3)cc2s1` was inactive: -21%. For `COC(=O)c1ccc(Cn2nnc3c(=O)[nH]c(C4CCCN(S(=O)(=O)c5ccccc5Cl)C4)nc32)cc1` (centres undefined), the “activation” value is inactive: -10.6%.

On to `Cc1ccc(-c2nnc3c4ccccc4c(C)nn23)cc1NC(=O)c1ccccc1`, for which the “activation” value was inactive: -15.6%.

As to `CCOC(=O)c1cnc2c(Cl)cc(Cl)cc2c1Nc1ccccc1OC`, the “activation” value is inactive: -14.3%. The result for `COc1ccc(-c2cn3c(C)c(C(=O)Nc4cc(C)cc(C)c4)sc3n2)cc1` reads inactive: -19.9%. The value for `Cc1cc(-c2ccc(C)c(S(=O)(=O)N3CCOc4ccc(Cl)cc43)c2)on1` was inactive: -13%; that for `CCc1cccc(NC(=O)CN(C)S(=O)(=O)c2ccc3[nH]c4c(c3c2)CCCC4)c1` was inactive: -1.92%.

Regarding `CC(C)(C)OC(=O)N1CCC(c2c(C(=O)N3CCN(C(=O)c4ccco4)CC3)cnn2-c2ccc(F)cc2F)CC1`, the “activation” value was inactive: 4.64%. As to `CCOc1ccc(-n2nc3ccc(NC(=O)Cc4ccccc4)cc3n2)cc1`, the “activation” value is inactive: -25.1%. The value for `CCCOC(=O)c1c(NC(=O)c2cc3ccccc3c(=O)o2)sc2c1CCC(C)C2` (centres undefined) was inactive: -13%; that for `COc1cc(NC(=O)c2nnn(CC(=O)Nc3cc(C)ccc3C)c2N)cc(OC)c1` was inactive: -10%. In the case of `COc1cc(NC(=O)c2cc(-c3cccc(OC)c3)n[nH]2)cc(OC)c1`, the “activation” value is inactive: -5.36%. The value for `CCOc1ccc(-n2c(SCC(=O)Nc3ccc(CC)cc3)nc3c(oc4ccccc43)c2=O)cc1` was inactive: -2.27%; that for `CCOc1cc(C(=O)Nc2ccc3c(c2)n(C)c(=O)c(=O)n3C)cc(OCC)c1OCC` was inactive: -21.2%. The result for `O=C(Nc1ccc(OC(F)(F)F)cc1)c1noc2c1CCCC2` reads inactive: -15.9%; that for `CCOC(=O)CCc1c(C)nc2cc(-c3cc(OC)cc(OC)c3)[nH]n2c1=O`, inactive: -9.68%. For `CCC1=C(c2ccc(C)cc2)S(=O)(=O)N=C1N1CCC(C(=O)NCc2ccc(N(C)C)cc2)CC1`, the “activation” value was inactive: -24.9%. The result for `CCN1C(=O)c2ccccc2Sc2ccc(NC(=O)Nc3cccc([N+](=O)[O-])c3C)cc21` reads inactive: -3.03%; that for `COc1ccc(CNC(=O)c2cnn3c(C)c(Cc4c(F)cccc4Cl)c(C)nc23)cc1`, inactive: -20.9%; that for `COc1ccc(N(C(=O)c2ccc(C(C)(C)C)cc2)S(=O)(=O)c2ccc(Cl)cc2)cc1`, inactive: -9.96%. As for `Cc1ccc(N2CC(NC(=O)c3cccc(Cl)c3)CC2=O)cc1C` (centres undefined), the “activation” value is inactive: -9.17%. The result for `CCOC(=O)c1c(C)oc2ncnc(Nc3cc(C)cc(C)c3)c12` reads inactive: -8.93%. The value for `O=C(NCCc1csc2nc(-c3ccccc3F)nn12)C(=O)Nc1cc(F)ccc1F` was inactive: -4.66%; that for `O=C(NCCCN1CCN(c2cccc(Cl)c2)CC1)c1cnn(-c2ccc(F)cc2)c1-n1cccc1` was inactive: -30.6%; that for `CC1CCCN(C(=O)Cn2ncc3c([nH]c4ccccc43)c2=O)C1` (centres undefined) was inactive: -4.44%.

Take `CCc1ccccc1Nc1sc(C(=O)c2cccc(OC)c2)c(N)c1S(=O)(=O)c1ccccc1`: the “activation” value is inactive: -13%. The value for `COC(=O)c1c(NC(=O)/C(C#N)=C/c2ccccc2)sc2c1C(C(=O)OC)CC2` (centres undefined) was inactive: -5.16%; that for `CCCCOc1ccc(C(=O)NCc2nnnn2-c2ccc(C)c(C)c2)cc1` was inactive: 5.9%. The result for `COc1ccc(C2c3c(n(C)c4ccccc34)C(=O)N2CC(=O)Nc2cccc(Cl)c2C)cc1` (centres undefined) reads inactive: -20.4%; that for `Cc1cccc(N2CCN(C(=O)c3cnc(N4CCCC4)nc3C)CC2)c1C`, inactive: -8.05%. The result for `COc1cc(O)cc(O)c1` reads inactive: -8.23%. As to `COc1ccc(OCc2ccc(-c3nc(C#N)c(N4CCCCC4)o3)o2)cc1`, the “activation” value was inactive: -12.4%.

As to `Cc1ccccc1OCC(=O)N1CCC(c2nc3ccccc3s2)CC1`, the “activation” value was inactive: -9.65%. The value for `CCCSc1ncc(Cl)c(C(=O)N(Cc2ccc(Cl)cc2)Cc2ccco2)n1` was inactive: -0.0405%; that for `CCc1ccccc1NC(=O)Cn1c(=O)ccc2cc(S(=O)(=O)N3CCCC3)ccc21` was inactive: -10.5%. The value for `CCOC(=O)N1CCc2c(sc3c2c(=O)n(-c2ccc(CC)cc2)c(=O)n3C)C1` was inactive: -12.9%; that for `COc1ccc(S(=O)(=O)N2Cc3ccccc3CC2C(=O)Nc2ccc(C)cc2C)cc1OC` (centres undefined) was inactive: -20%; that for `CCOC(=O)c1c(C)[nH]c(C)c1S(=O)(=O)N1CCC(C(=O)NCc2cccc(OC)c2)CC1` was inactive: -9.96%.

Regarding `CCC1CCCCN1S(=O)(=O)c1cc2c3c(c1)CC(=O)N3CCC2` (centres undefined), the “activation” value is inactive: -12%.

For `CCC(C(=O)O)n1ccc2cc(S(=O)(=O)N3CCCCC3)ccc21` (centres undefined), the “activation” value was inactive: -6.55%. With `Cc1c(C(=O)N(C)C)sc2c1c(=O)n(-c1ccc(Cl)cc1)c(=O)n2CC(=O)C(C)(C)C`, the “activation” value is inactive: 3.88%. As for `COc1ccc(C(=O)c2c(N)c(C(=O)Nc3cccc(OC)c3)c3ccccn23)cc1`, the “activation” value was inactive: -12%.

With `COc1ccc(-n2c(=O)c3sc4ccccc4c3n(Cc3ccccc3C)c2=O)cc1OC`, the “activation” value is inactive: -13.5%.

Consider `Cc1ccc(NC(=O)Cn2nc(N3CCN(c4ccccc4)CC3)ccc2=O)cc1F`, for which the “activation” value was inactive: -10.8%. The result for `Cc1ccc(C)c(NC(=O)Cn2cc(S(=O)(=O)Cc3cccc(Cl)c3)c3ccccc32)c1` reads inactive: -7.33%; that for `CCc1ccc(NC(=O)CN2C(=O)CSc3ccc(S(=O)(=O)N(C)C)cc32)cc1`, inactive: -6.95%; that for `Cc1ccccc1C(=O)Nc1cccc(OCc2cc(=O)n3cccc(C)c3n2)c1`, inactive: -2.54%. As for `CC1CCCN(CCCNC(=O)c2ccc3c(c2)N(Cc2ccc(Cl)cc2)C(=O)c2ccccc2S3(=O)=O)C1` (centres undefined), the “activation” value is inactive: 0.394%. The value for `Cc1cc(OC(C)C(=O)N(Cc2ccc(N(C)C)cc2)Cc2ccco2)ccc1Cl` (centres undefined) was inactive: -18.3%. The result for `COc1ccc2cc3c(N)nn(C(=O)c4ccccc4Cl)c3nc2c1` reads inactive: -14.3%; that for `COc1ccc(-c2noc(CN(C(=O)C(C)Oc3ccc(C)cc3)C(C)C)n2)cc1` (centres undefined), inactive: -10.6%. The result for `CC(=O)O[C@]1(C(C)=O)CC[C@H]2[C@@H]3C=C(Cl)C4=CC(=O)CC[C@]4(C)[C@H]3CC[C@@]21C` reads inactive: -12.7%; that for `CCn1cc(C(=O)NCCc2ccc(OC)c(OC)c2)c(=O)c2cc(S(=O)(=O)N(C)C3CCCCC3)ccc21`, inactive: 1.83%; that for `CCOc1ccc(NC(=O)N2CCN(c3ccc(Cl)c(Cl)c3)CC2)cc1`, inactive: -8.41%. As to `O=C(NCc1ccccc1)c1ccc2c(c1)CCN2S(=O)(=O)c1ccc(Cl)cc1`, the “activation” value is inactive: -9.49%. In the case of `Cc1ccccc1CNC(=O)CCS(=O)(=O)c1cc2c3c(c1)CCN3C(=O)CC2`, the “activation” value was inactive: -17.3%. The result for `CCOc1cccc(CNC(=O)c2ccc(N3CCCC3)c(NC(=O)NCc3ccccc3)c2)c1` reads inactive: -23.8%; that for `Cn1nnc2c(N3CCN(c4ccc(F)cc4)CC3)ncnc21`, inactive: -4.48%. The value for `COc1ccc(Cl)cc1NC(=O)Cn1ccn(-c2cc(C)cc(C)c2)c(=O)c1=O` was inactive: -4.46%; that for `CCc1ccc(NCc2cc3ccc(OC)cc3n(CC(=O)Nc3c(C)cc(C)cc3C)c2=O)cc1` was inactive: -17.1%. The result for `CC(C)Oc1ccc(C(=O)N(Cc2ccc(N(C)C)cc2)C2CCS(=O)(=O)C2)cc1` (centres undefined) reads inactive: -10.7%.
